The list shows a part of the results.
T1: UNK ZnF1-3 (human, UniProt Q9C0B0 31-174)
T1 sequence: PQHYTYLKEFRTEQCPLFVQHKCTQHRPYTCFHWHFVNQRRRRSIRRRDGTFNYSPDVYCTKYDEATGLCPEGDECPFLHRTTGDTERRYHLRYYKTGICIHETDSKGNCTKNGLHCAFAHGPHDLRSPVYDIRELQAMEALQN

B1: 84634214_84644336_917_CDS_ENSG00000065615_ENST00000369681|human|control|control (ssRNA)
RNA: GGGAGUUCUACAGUCCGACGAUCCUGGCACUUUCUGUAGUACAAACCUGUAUCUUUCCUUGGAAUAAGUGAAUUAUGAUUCUUCAGGGGAUGGCCAAGAAAGUCCCAAGAAGUAUUCUCUUUUUUUUGUAGAACAAUCUCUAUCAACAGAGGAUUGAGCAUCA
B2: 13734483_13737013_542_CDS_ENSG00000101654_ENST00000262173|human|control|control (ssRNA)
RNA: GGGAGUUCUACAGUCCGACGAUCUUCUCCAAUGAGAACACUUUUCAUCCAAUUAUUAAAGUUUCUUAGGUAAAAAAUACGACUUUGACUACGCUUCUCCAAACCAACUUCCUGAAGUUCAUUGUAAUGGGCAGCCACUGUUGACAACAGAGGAUUGAGCAUCA
B3: chr7:66532262:66532263:+_ENSMUSG00000025326_ENSMUST00000107537|mus_mus|FALSE|FALSE (ssRNA)
RNA: GGGAGUUCUACAGUCCGACGAUCUCCUUGAACUAGGCUGUAAAGAACAGUGAUUCUUCUUUCACUGUACAUGCGAAUUCUAUUGUCAUAAUAUAAUCCCAGAUUCUUUGUGACAGCAUUCAAUAUAAAGGGACAUGUCAUAAACAACAGAGGAUUGAGCAUCA
B4: 89150025_89150145_181_3pUTR_ENSG00000065243_ENST00000370521|human|control|control (ssRNA)
RNA: GGGAGUUCUACAGUCCGACGAUCAGGGAUUCAUGGAGGCGCAGCCCCUGCUGGAGGCGCGGCUUAUUCCGUCCGGUUCAUCGAGAGCGGCGGGGAGCUAGGGCACUCGUAGCGGGCUUCCUCUCGCCGCCCUCACCGGACUGUCAACAGAGGAUUGAGCAUCA
B5: chr3:179287964:179287965:+_ENSG00000136518_ENST00000429709|hu_hu|hu_hu_hu_mus_True|1_1 (ssRNA)
RNA: GGGAGUUCUACAGUCCGACGAUCCUUGAGUGGUGAGAUGGCCUCCAUGUUCUCCCUGGGCACGCGGAGGGCAUUGGUGUCUAUGUAGUAGGUGGGCCCGCCCUGCUUGCCUUUGUCACCAUCAAUCUCCAUCAUUGUGCUUCCCAACAGAGGAUUGAGCAUCA
B6: chr1:46159212:46159213:+_ENSG00000159596_ENST00000372025|hu_mus|hu_hu_hu_mus_True|28_88 (ssRNA)
RNA: GGGAGUUCUACAGUCCGACGAUCUCUGAUCCCUCCCAAGAAAGCUAGGAAACUGGCUCCAUAAGCCAUCUGAGUGAAAGCUAGGACGGGGAUAUAAGACUUUGUUAUCAGCAUGACAAGUGGGGGAGCAGUAAAGGGGAUUAACAACAGAGGAUUGAGCAUCA
B7: chr4:53728692:53728693:+_ENSG00000128045_ENST00000248706|hu_mus|FALSE|FALSE (ssRNA)
RNA: GGGAGUUCUACAGUCCGACGAUCCAGGCAGCAGUCGGCAGCGGUGCUGCCUGGGGCGGGGUACUCUGCGAUGGUACACAUGUUCUGGAUGAGGCGCAUCGCCGCUACGGCCCGGCUGCACGGAGCGGGGAGGAAAGUCAGGACCAACAGAGGAUUGAGCAUCA
B8: 71651039_71651159_4769_CDS_ENSG00000075292_ENST00000264447|human|control|control (ssRNA)
RNA: GGGAGUUCUACAGUCCGACGAUCGCUGUCAUCCCGUUUCAUGAUGGAAGGUCUAGCCUCUGUUUCCUGAGAUUGUUUUGUUAUAUCUCUGUAAUCCAGUUUAGAAAGCUUGCCUUGCAGGGCUGAGAUCCUUCCACUGCCUCCCAACAGAGGAUUGAGCAUCA
B9: chr6:86333760:86333761:-_ENSG00000135316_ENST00000355238|hu_mus|FALSE|FALSE (ssRNA)
RNA: GGGAGUUCUACAGUCCGACGAUCUUCCUCAAGAAUCUGCUCCUUGGUUUUACUCUUAGGAAUCGAGCCCACAAAAAGCCUAUUGUUGGCAACUGAGAUGCAGACACCAAUGUGCUUCCCGGAACGAAUUUCAUGAUUAUUAUACAACAGAGGAUUGAGCAUCA
B10: chr2:29787112:29787113:+_ENSMUSG00000026790_ENSMUST00000113756|mus_mus|FALSE|FALSE (ssRNA)
RNA: GGGAGUUCUACAGUCCGACGAUCGCAAUGAGAUAGGAAUUCUGAUUGUCAGGCCGGAUGGUCGUGAGGAACAAGUGGCCUAUAGGAAACAGACAUGGGAGGUUUCCCCGGGCACCAAGGAGAACACUGCUUCCUGCAGGACCCCAACAGAGGAUUGAGCAUCA
B11: chr6:83927055:83927056:+_ENSMUSG00000030016_ENSMUST00000032088|mus_mus|motif|central (ssRNA)
RNA: GGGAGUUCUACAGUCCGACGAUCUGUACUUUUUGCUUUAGGAGAAGAGACCACAGUAGCCUUGAUGCUUGAUUUACGGCGGUAUACAUUUGAUACAGUCAGCACACUACUUUUACCAGUUUCAUCAGGCUUACUGGUCUGAUCCAACAGAGGAUUGAGCAUCA
B12: chr12:16048344:16048345:+_ENSG00000023734_ENST00000419869|hu_hu|hu_hu_hu_mus_True|8_58 (ssRNA)
RNA: GGGAGUUCUACAGUCCGACGAUCAGAUCGUCCAUAAGUAAUAACCAAAAUCUCUCCUUCAGGAAUAUACUCCAUGCUACUAACAGACAUAUUAAAAUUCAGAGAUUUCACUUCUGUCAUUGUGGCAUGAUCCCAAAGCCGAACCAACAGAGGAUUGAGCAUCA
B13: chr7:151048522:151048523:+_ENSG00000013374_ENST00000566856|hu_mus|hu_hu_hu_mus_True|18_108 (ssRNA)
RNA: GGGAGUUCUACAGUCCGACGAUCCUGCUUCUUAUUUAUUACGAUCUUGAUGUAAUUUUCUUGAAAUCCGAAAGUUUCAGCUAUUUGACACCUCAGGUCUCUACCAGUGACAUGCAAUCGGGUCUCCAACAAGCUUUUCUUAUCCAACAGAGGAUUGAGCAUCA
B14: chrX:140365796:140365797:-_ENSMUSG00000031285_ENSMUST00000033642|mus_mus|mus_mus_mus_hu_False|8_108 (ssRNA)
RNA: GGGAGUUCUACAGUCCGACGAUCCUUCUCAUUACUUAGUGCCUGCAAGGUUCUGGUUCGGUAGAAGCUACAGUGGGCGCUGUGAGUGGGGCUAGGCAACCCAUUCAUCCGGGAGCCUCGCAUGUUCCUAGAUGCUUUAUCUCUCAACAGAGGAUUGAGCAUCA
B15: chr14:89305849:89305850:+_ENSG00000165533_ENST00000346301|hu_mus|motif|central (ssRNA)
RNA: GGGAGUUCUACAGUCCGACGAUCAGCAUUUUCAUCCAGGAUCAUUUCAGCAAUUCCUUCCUGGUCCACAUCAAUUUCAUCGGUGUACACCAUCUCUGUCAGCGCCCGUGCUUUCAAAAUCCAAGCCGCCUGAUCAUAAGGGGACAACAGAGGAUUGAGCAUCA
B16: 55394983_55397375_5385_CDS_ENSMUSG00000021488_ENSMUST00000099490|mouse|control|control (ssRNA)
RNA: GGGAGUUCUACAGUCCGACGAUCAGGAUGGCAGAUCUCAGCUGGCCACCACCUGUAGCGACCAACUUUUACCCAGACAAUCUCCCUGUAGUGUGGCUUUUUGCCUGCCUUACAGUCAUUGCAGUACCAAUUUCCUUCAGGGAUCAACAGAGGAUUGAGCAUCA
B17: chr4:17845017:17845018:+_ENSG00000109805_ENST00000514176|hu_mus|hu_hu_hu_mus_False|58_78 (ssRNA)
RNA: GGGAGUUCUACAGUCCGACGAUCGCUCUCUUAACUUGUAUCUUCAUUAAGGAACUCGCAAGGUUAAAGUUUACUUUUUCUAGUGCUAGCUGUUUUGGCUCGUCUGGGUAAUCUCAUCUUCAUUUCUGAUGGUGGUUCAUGAUCCAACAGAGGAUUGAGCAUCA
B18: chr11:97022710:97022711:-_ENSMUSG00000001440_ENSMUST00000001479|mus_mus|motif|central (ssRNA)
RNA: GGGAGUUCUACAGUCCGACGAUCCACUUUAAAAAAUUACUAAAGCGUGCGAGCAGGGUCACCAUCUGACACCAUUUUACGGAUCUUCAACUUCAGUGGAAAAAUAGAGCCUUCUUCCUGGUGCCAUUUUCAUCACAACAGUUGCAACAGAGGAUUGAGCAUCA
B19: chr19:56882518:56882519:-_ENSMUSG00000035173_ENSMUST00000118592|mus_mus|FALSE|FALSE (ssRNA)
RNA: GGGAGUUCUACAGUCCGACGAUCCUGAGACAGCUGCUUAAUUUUGUUAGUGUUUUUCUCCAAUUCCUUACUUGCAUCUCUAAGUUUCCUCUCAAGGGUUUCUUUUUCCUUUCGCAGGUCUAGAGCCUCCUUCUCGCCUCUCACCAACAGAGGAUUGAGCAUCA
B20: chr11:9452432:9452433:+_ENSG00000205339_ENST00000379719|hu_mus|motif|central (ssRNA)
RNA: GGGAGUUCUACAGUCCGACGAUCAAAUGUCAUUGCCAGAUGUUGUGUCAUUUCUACAGCAAUAGGAGUAACUUCUUCACGGUAUUCACAGAUCAUUUUCUGAAUUACAUUUGUAAGAUCAUCAUUUUCUGUUUCUCUUAUAAUCAACAGAGGAUUGAGCAUCA
B21: chr15:84030238:84030239:+_ENSMUSG00000022437_ENSMUST00000023071|mus_mus|FALSE|FALSE (ssRNA)
RNA: GGGAGUUCUACAGUCCGACGAUCGUUUCCAACCAUGGUGUUGUAACUGCCCGUCAGUCUCCUCAGCUCUGUCACUUCAAAGGUGACAUCUAACCCAUUGGGCAGGGCAUCUUCACCAUGACAUGUAUCGAUCAAAACAUCCACCAACAGAGGAUUGAGCAUCA
B22: 35299762_35309300_591_3pUTR_ENSG00000101079_ENST00000349004|human|control|control (ssRNA)
RNA: GGGAGUUCUACAGUCCGACGAUCAAAAUAAUGUCCACAACAUUGGUUGUCAGGCCAGAGAGUUUGGAAGCUGCCCAGUCAAUCCAGCCUUUAGCGCAAGGGUCAACAUUAAUGAGCACAAGGCCUUCCACAAGCUCUGGAUGGCAACAGAGGAUUGAGCAUCA

Molecular target: T1, UNK ZnF1-3
Assay: nsRBNS (natural sequence RNA bind-n-seq); RBNS binding buffer (assumed for nsRBNS): 25 mM Tris pH 7.5, 150 mM KCl, 3 mM MgCl2, 0.01% Triton X-100, 500 ug/ml BSA, 20 U/ml SUPERase-In, 4 C; UNK is unkempt and MSI1 is Musashi-1; names of the RNAs are library labels; protein concentration not given here; high values mean tight binding

Binder | binding signal [enrichment R]
B1 | 0.802
B2 | 1.41
B3 | 0.599
B4 | 0.513
B5 | 0.64
B6 | 1.39
B7 | 1.44
B8 | 0.553
B9 | 1.14
B10 | 1.04
B11 | 0.684
B12 | 0.737
B13 | 0.658
B14 | 0.682
B15 | 1.63
B16 | 0.329
B17 | 0.375
B18 | 1.13
B19 | 0.446
B20 | 0.582
B21 | 0.736
B22 | 1.27
